Experiments:
[1] = test system: gastric cancer cells NCI-N87; assay: HER2 internalization (endocytosis) assay, pHrodo Green staining, flow cytometry; type: cell-based, human; details: 10 μg/mL
Method: (§1) A HER2 internalization assay was performed using pHrodoiFL Green STP ester amine reactive dye (P35369, Invitrogen). […] After a short wash with a wash buffer to remove unbound antibodies, one group of cells was placed on ice for freezing to stop internalization, and the remaining cells were placed in a 37° C. incubator for further incubation. After the co-incubation with the antibody, the cells were fixed with a fixation buffer (420801, Biolegend) for 30 min. Finally, all stained cells were washed with a staining buffer and analyzed on the CytoFLEX LX flow cytometer (Beckman Coulter, USA).

[2] = test system: gastric cancer cells SNU216; assay: as above; type: cell-based, human; details: 10 μg/mL
Method: as §1

[3] = test system: NCI-N87 cells; assay: Apoptosis assay (Caspase-Glo 3/7); type: cell-based, human; details: 24 h treatment
Method: The apoptosis was assessed by measuring the activity of caspases 3/7 in gastric cancer NCI-N87 cells using the Caspase-Glo®3/7 Assay system. A xenograft human gastric cancer NCI-N87 model and a human gastric cancer PDX model were treated with the antibodies at given doses. All data are presented as mean±SEM. The p values were calculated using Student's t test. ** denotes p<0.01, and * denotes p<0.05.
The apoptosis was assessed by measuring the activity of caspases 3/7 in NCI-N87 cells using the Caspase-Glo®3/7 Assay (G8093, Promega) system. The cells were seeded in a 96-well plate (CLS3799, Corning) at about 1.5×10^4 cells/well and incubated overnight. The original medium was replaced with a drug-containing culture medium of 100 μL, and the cells were treated for 24 h. After an incubation at room temperature for 30 min, 100 μL of Caspase-Glo 3/7 reagent was added. The plate was incubated in the dark for 30 min and detected using Spark (Tecan, Switzerland) after gentle shaking.

[4] = Phase I clinical trial of the second anti-HER2 antibody, safety; type: in vivo, human; details: 11 subjects, at least one dose
From the text: In the phase I clinical trial of the second anti-HER2 antibody, as of Apr. 22, 2022, a total of 11 subjects were enrolled and given at least one dose of the anti-HER2 antibody. The 11 subjects were included in the safety analysis set.

B1: second anti-HER2 antibody: humanized IgG1 monoclonal antibody binding HER2 domain IV at an epitope different from trastuzumab; heavy chain SEQ ID NO: 5, light chain SEQ ID NO: 10 (antibody)
heavy: EVQLVESGGGLVQPGGSLRLSCAASGFTFSSYTMSWVRQAPGKGLEWVAYISAGGGSTYYPDTVKGRFTISRDNAKNSLYLQMNSLRAEDTAVYYCARHLGGTASFDYWGQGTLVTVSS[human IgG1 constant region skipped]
light: DIQMTQSPSSLSASVGDRVTITCLASQTIGTWLAWYQQKPGKAPKLLIYVATSLADGVPSRFSGSGSGTDFTLTISSLQPEDFATYYCQQNAYAPWTFGQGTKVEIKRTVAAPSVFIFPPSDEQLKSGTASVVCLLNNFYPREAKVQWKVDNALQSGNSQESVTEQDSKDSTYSLSSTLTLSKADYEKHKVYACEVTHQGLSSPVTKSFNRGEC
[1]
  HER2 internalization (endocytosis): weak endocytosis
[2]
  HER2 internalization (endocytosis): weak endocytosis
[3]
  apoptosis (caspases 3/7 activity): did not significantly induce the apoptosis of NCI-N87 cells
[4]
  dose-related toxic reactions: No dose-related toxic reactions were observed
  tolerability: well tolerated in all treatment groups
  treatment-emergent adverse events leading to interruption, dose reduction, or infusion rate reduction: no treatment-emergent adverse events leading to interruption, dose reduction, or infusion rate reduction occurred
  treatment-emergent adverse events observed: decreased lymphocyte count, decreased leukocyte count, and hypokalemia

Reference: patent US20260167742A1, “METHOD FOR TREATING GASTRIC CANCER BY COMBINING ANTI-HER2 ANTIBODY AND CHEMOTHERAPEUTIC AGENT, AND USE” (SHANGHAI HENLIUS BIOTECH, INC., priority 2023, published 2026)
